In the supplement of paper PMC9446081:
The whole screen tested about 39,000 compounds, of which about 220 (0.56%) showed activity. Some of the results follow.

Tested on: Escherichia coli K-12 BW25113
Assay: relative growth (OD600 normalised to plate interquartile mean) (fraction); higher = less growth inhibition, active = 0.2 or less
Conditions: 50 µM; LB; incubation time: overnight (16-24 h)
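Also: static incubation at 37 °C against the wild-type strain, values averaged over two biological replicates.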

SMILES | relative growth
COc1ccc(C#Cc2ccc([C@@H]3[C@H](CO)N4CCCCN(S(=O)(=O)c5cn(C)cn5)C[C@@H]34)cc2)cc1 | inactive: 0.944
CC(C)CSc1ncnc2scc(-c3ccccc3)c12 | inactive: 0.989
C[C@H](CO)N1C[C@H](C)[C@H](CN(C)C(=O)Nc2ccc3c(c2)OCCO3)OCc2cn(nn2)CCCC1=O | inactive: 1.02
O=C(Cn1cnnn1)NS(=O)(=O)c1ccccc1 | inactive: 0.973
C[C@H]1CCCCO[C@H](CN(C)CC2CCCCC2)[C@@H](C)CN([C@@H](C)CO)C(=O)c2cc(NC(=O)c3ccccc3)ccc2O1 | inactive: 1.01
C[C@@H]1CN([C@@H](C)CO)C(=O)Cc2cc(NC(=O)NC3CCCCC3)ccc2O[C@H]1CN(C)Cc1ccc(Cl)c(Cl)c1 | inactive: 1
O=c1c(O)c(-c2ccccc2)oc2cccc(O)c12 | inactive: 0.976
O[C@@H]1[C@@H](O)[C@H](O)OC[C@H]1O | inactive: 0.985
C[C@@H]1CN([C@H](C)CO)C(=O)c2cccc(NS(C)(=O)=O)c2O[C@@H]1CN(C)S(=O)(=O)c1ccccc1 | inactive: 0.982
COCC(=O)N(C)C[C@H]1Oc2cc(C#CC(C)(C)O)ccc2S(=O)(=O)N([C@H](C)CO)C[C@H]1C | inactive: 0.996
O=C(O)[C@H]1NC(=O)[C@@H]1Cc1ccccc1 | inactive: 1
COc1ccc(NC(=O)N(C)C[C@H]2Oc3ncc(C#CCN(C)C)cc3C(=O)N([C@H](C)CO)C[C@H]2C)cc1 | inactive: 1
COc1ccc(S(=O)(=O)Nc2cccc3c2O[C@H](CN(C)S(=O)(=O)c2cccs2)[C@H](C)CN([C@@H](C)CO)C3=O)cc1 | inactive: 1.05
Cc1noc(C)c1NC(=O)N(C)C[C@@H]1Oc2ccc(NC(=O)CCCN(C)C)cc2C(=O)N([C@@H](C)CO)C[C@@H]1C | inactive: 1.01
C[C@H](CO)N1C[C@H](C)[C@H](CN(C)C(=O)Nc2ccccc2)Oc2c(NS(C)(=O)=O)cccc2C1=O | inactive: 0.989
CCS(=O)(=O)NCC[C@@H]1CC[C@@H](NS(=O)(=O)c2ccccc2C)[C@H](CO)O1 | inactive: 0.992
Cc1noc(C)c1NC(=O)Nc1ccc2c(c1)C(=O)N([C@@H](C)CO)C[C@H](C)[C@@H](CN(C)Cc1ccccc1)OCCCC[C@@H](C)O2 | inactive: 0.985
Cc1ccnc(NS(=O)(=O)c2ccc(N)cc2)n1 | inactive: 0.826
C[C@H](CO)N1C[C@H](C)[C@@H](CN(C)C(=O)NC2CCCCC2)Oc2ccc(NC(=O)Cn3cnnn3)cc2CC1=O | inactive: 1.01
COc1ccc(S(=O)(=O)Nc2ccc3c(c2)[C@H]2C[C@H](CC(=O)NCC4CC4)O[C@H](CO)[C@H]2O3)cc1 | inactive: 0.995
C[C@@H]1CN([C@@H](C)CO)C(=O)Cc2cc(NS(=O)(=O)c3ccc(Cl)cc3)ccc2O[C@@H]1CN(C)Cc1ccc(-c2ccccc2)cc1 | inactive: 1

SMILES | relative growth
C[C@H]1CN([C@@H](C)CO)C(=O)Cc2cc(NC(=O)Cc3cn(C)c4ccccc34)ccc2O[C@@H]1CN(C)CC1CCCCC1 | inactive: 1.03
C[C@@H]1CCn2cc(nn2)COC[C@H](Cc2ccccc2)NC(=O)[C@H](C)CCn2cc(nn2)COC[C@H](Cc2ccccc2)NC1=O | inactive: 0.986
CN1CCN([C@@H]2CCN[C@H]2Cc2cnn(C)c2)CC1 | inactive: 1
COc1cc(OC)cc(-c2ccc(-c3ccc([C@H]4CC(=O)C[C@@H](c5ccccc5)C45C(=O)OC(C)(C)OC5=O)cc3)cc2OC)c1 | inactive: 0.996
COc1ccc(S(=O)(=O)Nc2ccc3c(c2)CC(=O)N([C@H](C)CO)C[C@@H](C)[C@H](CN(C)Cc2ccncc2)O3)cc1 | inactive: 0.941
Cc1n[nH]c(C)c1S(=O)(=O)N1CCCC1 | inactive: 0.978
Cl.Cl.O=C(O)COCCN1CCN(C(c2ccccc2)c2ccc(Cl)cc2)CC1 (stereo unspecified) | inactive: 0.971
C[C@@H]1CCCCO[C@@H](CN(C)S(=O)(=O)c2ccc(Cl)cc2)[C@@H](C)CN([C@H](C)CO)C(=O)c2cc(NS(=O)(=O)c3ccc(F)cc3)ccc2O1 | inactive: 0.981
C[C@H]1CN([C@@H](C)CO)C(=O)c2cc(NC(=O)C3CCCCC3)ccc2O[C@@H]1CN(C)S(=O)(=O)c1cn(C)cn1 | inactive: 1.01
Cc1ccc(S(=O)(=O)Nc2cccc3c2O[C@H](CN(C)C(=O)Nc2cccc4ccccc24)[C@@H](C)CN([C@H](C)CO)C3=O)cc1 | inactive: 0.991
COc1ccccc1CNC(=O)C[C@@H]1C[C@@H]2c3cc(NC(=O)Cc4ccncc4)ccc3O[C@@H]2[C@@H](CO)O1 | inactive: 0.978
Cc1noc(C)c1NC(=O)N(C)C[C@H]1OCCCC[C@@H](C)Oc2ccc(NS(=O)(=O)c3ccccc3)cc2C(=O)N([C@H](C)CO)C[C@@H]1C | inactive: 0.973
Cn1c(=O)c2c(nc(N3CCNCC3)n2CC(=O)c2ccc(Cl)cc2)n(C)c1=O | inactive: 0.981
C[C@H](CO)N1C[C@H](C)[C@H](CN(C)S(C)(=O)=O)OCCCC[C@H](C)Oc2ccc(NS(=O)(=O)c3cn(C)cn3)cc2C1=O | inactive: 0.982
COc1ccc(C#Cc2ccc3c(c2)O[C@@H](CN(C)C(C)=O)[C@@H](C)CN([C@H](C)CO)S3(=O)=O)cc1 | inactive: 1.02
COc1ccc(S(=O)(=O)Nc2ccc3c(c2)C(=O)N([C@@H](C)CO)C[C@H](C)[C@@H](CN(C)C(=O)Nc2cccc4ccccc24)O3)cc1 | inactive: 1
CON=C(C(=O)NC1C(=O)N2C(C(=O)O)=C(C[N+]3(C)CCCC3)CSC12)c1csc(N)n1.[Cl-] (stereo unspecified) | active: 0.0437
C[C@@H]1CN([C@H](C)CO)C(=O)c2ccccc2-c2ccccc2CO[C@H]1CN(C)C(=O)c1cc(Cl)cc(Cl)c1 | inactive: 0.971
C[C@@H]1CN([C@@H](C)CO)C(=O)c2cc(NC(=O)Nc3ccc4c(c3)OCO4)ccc2O[C@@H](C)CCCCO[C@@H]1CN(C)S(=O)(=O)c1ccc(F)cc1 | inactive: 1.01
Nc1ccn(C[C@@H](CO)OCP(=O)(O)O)c(=O)n1 | inactive: 0.985
COc1ccc(NC(=O)N(C)C[C@@H]2OCCCC[C@H](C)Oc3ccc(NS(=O)(=O)c4ccccc4)cc3C(=O)N([C@H](C)CO)C[C@@H]2C)cc1 | inactive: 0.971

SMILES | relative growth
Cc1ccc(S(=O)(=O)N(C)C[C@@H]2OCCCC[C@@H](C)Oc3ccc(NC(=O)Nc4c(C)noc4C)cc3C(=O)N([C@H](C)CO)C[C@H]2C)cc1 | inactive: 0.99
CCO[C@H]1OC(C(=O)N2CCN(Cc3ccccc3)CC2)=C[C@@H](C)[C@@H]1CCCOC(=O)NCCCCCC(=O)NO | inactive: 1.01
Cc1noc(C)c1NC(=O)Nc1cccc2c1O[C@H](CN(C)S(=O)(=O)c1cn(C)cn1)[C@@H](C)CN([C@H](C)CO)C2=O | inactive: 0.999
C[C@@H]1CN([C@@H](C)CO)C(=O)c2cccc(NC(=O)c3nc4ccccc4s3)c2O[C@H]1CN(C)Cc1ccc(C(F)(F)F)cc1 | inactive: 0.891
C[C@H](CO)N1C[C@H](C)[C@@H](CN(C)Cc2ccc(-c3ccccc3)cc2)Oc2ccc(NC(=O)Nc3ccc(C(F)(F)F)cc3)cc2CC1=O | inactive: 1.03
Cc1noc(C)c1NC(=O)N(C)C[C@@H]1Oc2c(NS(=O)(=O)c3ccccc3)cccc2C(=O)N([C@H](C)CO)C[C@H]1C | inactive: 0.86
[O-][n+]1cccc(CO)c1 | inactive: 1.01
COC(=O)[C@H](Cc1ccccc1)N1CC2=C[C@@H](C3CC3)n3c(=O)n(C)c(=O)n3[C@H]2[C@@H]1[C@@H](O)CCn1cc(C(=O)NO)nn1 | inactive: 0.997
C[C@@H]1CN([C@@H](C)CO)C(=O)c2c(c3ccccc3n2C)-c2ccccc2CO[C@@H]1CN(C)C(=O)CCC(F)(F)F | inactive: 1
CNC[C@@H]1OCCCC[C@@H](C)Oc2ccc(NC(=O)Nc3ccc(C(F)(F)F)cc3)cc2C(=O)N([C@H](C)CO)C[C@@H]1C | inactive: 0.926
COc1ccc(CN(C)C[C@@H]2Oc3c(NS(=O)(=O)c4cn(C)cn4)cccc3C(=O)N([C@@H](C)CO)C[C@@H]2C)cc1 | inactive: 1.01
Cc1noc(C)c1S(=O)(=O)N(C)C[C@@H]1Oc2ccc(NC(=O)CCC(F)(F)F)cc2CC(=O)N([C@@H](C)CO)C[C@H]1C | inactive: 1
C[C@@H]1CN([C@@H](C)CO)C(=O)Cc2cc(NC(=O)c3ccncc3)ccc2O[C@@H]1CN(C)Cc1ccc(C(=O)O)cc1 | inactive: 0.989
COc1ccc(S(=O)(=O)N(C)C[C@H]2OCCCC[C@@H](C)Oc3ccc(NS(=O)(=O)c4cn(C)cn4)cc3C(=O)N([C@@H](C)CO)C[C@H]2C)cc1 | inactive: 0.957
COc1ccc(S(=O)(=O)Nc2ccc3c(c2)CC(=O)N([C@@H](C)CO)C[C@H](C)[C@H](CN(C)Cc2ccc(Cl)c(Cl)c2)O3)cc1 | inactive: 1.01
C[C@@H]1CN([C@@H](C)CO)C(=O)c2cc(NS(=O)(=O)c3ccc(F)cc3)ccc2O[C@@H](C)CCCCO[C@H]1CN(C)C(=O)Cc1ccccc1 | inactive: 0.986
CC(C)NC(=O)Nc1ccc2c(c1)C(=O)N([C@@H](C)CO)C[C@@H](C)[C@H](CN(C)S(=O)(=O)c1cn(C)cn1)O2 | inactive: 0.989
C[C@@H]1CCCCO[C@H](CN(C)S(=O)(=O)c2cccs2)[C@H](C)CN([C@H](C)CO)C(=O)c2cc(NC(=O)NC3CCCCC3)ccc2O1 | inactive: 1.02
COc1ccc(S(=O)(=O)Nc2ccc3c(c2)C(=O)N([C@H](C)CO)C[C@H](C)[C@H](CN(C)C(=O)Nc2ccc(C(F)(F)F)cc2)OCCCC[C@H](C)O3)cc1 | inactive: 1
